From patent US20250163048A1 (Tango Therapeutics, Inc., priority 2022, published 2025) come the findings set out here.

Structures are written as SMILES. pIC50: −log10 of the molar value. Where two headings read alike, the source gives them in different places. A value given as a limit tells only on which side of the number the result lay.

The subject of one assay is MTAP-deleted cell line. In words: viability assay for the MTAP-deleted cell line. It is filed as cell-based. The settings on record: Homo sapiens, HAP1, viability assay.
Assay [1] relates to HAP1 MTAP-deleted cell line. In words: SDMA in-cell western assay, HAP1 MTAP-deleted. The settings on record: for pIC50 / IC90: Homo sapiens; for Hap1 MTAP intact/deleted ratio: IC50 ratio between HAP1 MTAP-intact and HAP1 MTAP-deleted cell line.
Assay [2] relates to HAP1 MTAP-intact cell line. Nature of the assay: SDMA in-cell western assay, HAP1 MTAP-intact. The settings on record: Homo sapiens.
The mark [3] stands for this setting: HAP1, read-out: Hap1 MTAP deleted IC50, SDMA in-cell western, HAP1 MTAP-deleted cell line.
Where [4] appears, read: HAP1, read-out: Hap1 MTAP deleted IC90, SDMA in-cell western, HAP1 MTAP-deleted cell line.
The mark [5] stands for this setting: HAP1, read-out: Hap1 MTAP intact IC50, SDMA in-cell western, HAP1 MTAP-intact cell line.
[6] abbreviates: HAP1, read-out: Hap1 MTAP deleted IC50, SDMA in-cell western assay, HAP1 MTAP-deleted cell line.
The mark [7] stands for this setting: HAP1, read-out: Hap1 MTAP deleted IC90, SDMA in-cell western assay, HAP1 MTAP-deleted cell line.
Where [8] appears, read: HAP1, read-out: Hap1 MTAP intact IC50, SDMA in-cell western assay, HAP1 MTAP-intact cell line.

In general, pIC50 refers to the IC50 on a negative log10 scale, so that one unit is a factor of ten. One may read the IC90 as the point of the concentration-response curve where the effect stands at 90%. In the case of `C[C@H]1CC[C@H](c2ccc3[nH]ncc3c2)N(C(=O)C(=O)Nc2cnc(N)c3cn[nH]c23)C1` [Compound 190, 2-((2R,5S)-2-(1H-indazol-5-yl)-5-methylpiperidin-1-yl)-N-(4-amino-2H-pyrazolo[4,3-c]pyridin-7-yl)-2-oxoacetamide], the pIC50 in the assay on MTAP-deleted cell line was over 7.00; in assay [1] (setting [3]), over 8.30; in assay [2] (setting [5]), 7.30 to 8.30. Moreover, in assay [1] (setting [4]), the IC90 was under 75 nM. Moreover, the “Hap1 MTAP intact/deleted ratio” value in assay [1] (SDMA in-cell western) is “C (“C” indicates an IC50 ratio of less than 15 fold)”.
With `C[C@H]1CC[C@H](c2ccc3sc(C4CCN(C)CC4)nc3c2)N(C(=O)C(=O)Nc2cnc(N)c3c2COC3)C1` (racemic) [Compound 193, N-(4-amino-1,3-dihydrofuro[3,4-c]pyridin-7-yl)-2-oxo-2-[rac-(2R,5S)-5-methyl-2-[2-(1-methyl-4-piperidyl)-1,3-benzothiazol-5-yl]-1-piperidyl]acetamide], the pIC50 in the assay on MTAP-deleted cell line is over 7.00; in assay [1] (setting [3]), over 8.30; in assay [2] (HAP1, read-out: Hap1 MTAP intact IC50), over 8.30. In addition, the IC90 in assay [1] (setting [4]) was under 75 nM. Moreover, in assay [1] (SDMA in-cell western), the “Hap1 MTAP intact/deleted ratio” value is on record as “C (“C” indicates an IC50 ratio of less than 15 fold)”.
`CO[C@H]1C[C@@H](c2ccc(F)cc2)N(C(=O)C(=O)Nc2cnc(N)c3cn[nH]c23)C[C@@H]1C` (single isomer, unassigned) [Compound 160] gave a pIC50 in the assay on MTAP-deleted cell line of 6.00 to 7.00.
With `C[C@@H]1CC[C@@H](C2CCC2)N(C(=O)C(=O)Nc2cnc(N)c3cn[nH]c23)C1` (racemic) [Compound 249, N-(4-Amino-1H-pyrazolo[4,3-c]pyridin-7-yl)-2-oxo-2-[rac-(2S,5R)-2-cyclobutyl-5-methyl-1-piperidyl]acetamide], the pIC50 in the assay with MTAP-deleted cell line was over 7.00; in assay [1] (setting [6]), over 8.30; in assay [2] (setting [8]) it was under 7.30. Further, the IC90 in assay [1] (setting [7]) is under 75 nM. Besides, in assay [1] (SDMA in-cell western assay), the “Hap1 MTAP intact/deleted ratio” value was “A (“A” indicates an IC50 ratio greater than or equal to 30 fold)”.
The like results for `C[C@H]1CC[C@H](c2ccc3cn(C4CC4)nc3c2)N(C(=O)C(=O)Nc2cnc(N)c3cn[nH]c23)C1` (racemic) [Compound 284, N-(4-Amino-1H-pyrazolo[4,3-c]pyridin-7-yl)-2-oxo-2-[rac-(2R,5S)-2-(2-cyclopropylindazol-6-yl)-5-methyl-1-piperidyl]acetamide] were, in that order, over 7.00, over 8.30, over 8.30, under 75 nM and “C (“C” indicates an IC50 ratio of less than 15 fold)”.
The like results for `Cc1ccc([C@H]2CC[C@H](C)CN2C(=O)C(=O)Nc2cnc(N)c3cn[nH]c23)cc1C` (racemic) [Compound 208, N-(4-Amino-1H-pyrazolo[4,3-c]pyridin-7-yl)-2-oxo-2-[rac-(2R,5S)-2-(3,4-dimethylphenyl)-5-methyl-1-piperidyl]acetamide] were, in that order, over 7.00, over 8.30, 7.30 to 8.30, under 75 nM and “B (“B” indicates an IC50 ratio greater than or equal to 15 fold but lower than 30 fold)”.
The like results for `CCN(C)c1cccc([C@H]2CCCCN2C(=O)C(=O)Nc2cnc(N)c3cn[nH]c23)c1` [Compound 267] were, in that order, over 7.00, over 8.30, under 7.30, under 75 nM and “A (“A” indicates an IC50 ratio greater than or equal to 30 fold)”.
Turning to `Cc1ccc([C@H]2CC[C@H](C)CN2C(=O)C(=O)Nc2cnc(N)c3cn[nH]c23)cn1` [Compound 172, N-(4-amino-1H-pyrazolo[4,3-c]pyridin-7-yl)-2-oxo-2-[(2R,5S)-5-methyl-2-(6-methyl-3-pyridyl)-1-piperidyl]acetamide], the values for the pIC50 (in the assay with MTAP-deleted cell line; in assay [1] (setting [3]); in assay [2] (setting [5])) were over 7.00, over 8.30 and under 7.30, respectively. Besides, the IC90 in assay [1] (setting [4]) is under 75 nM. Besides, the “Hap1 MTAP intact/deleted ratio” value in assay [1] (SDMA in-cell western) is “A (“A” indicates an IC50 ratio greater than or equal to 30 fold)”.
The like results for `C[C@@H]1C[C@@H](c2nc3cc([C@H]4CC[C@H](C)CN4C(=O)C(=O)Nc4cncc5cn[nH]c45)ccc3s2)CN(C)C1` (single isomer, unassigned) [Compound 162] were, in that order, over 7.00, over 8.30, 7.30 to 8.30, under 75 nM and “B (“B” indicates an IC50 ratio greater than or equal to 15 fold but lower than 30 fold)”.
